# From the supplement of paper PMC12217912
# The list shows a part of the results. The full chains were built here from the parent and the listed change. Inactive controls read about 0.05.
# B1: TEV protease; numbered along this chain (parent)
# chain: MGESLFKGPRDYNPISSSICHLTNESDGHTTSLYGIGFGPFIITNKHLFRRNNGTLVVQSLHGVFKVKDTTTLQQHLVDGRDMIIIRMPKDFPPFPQKLKFREPQREERICLVTTNFQTKSMSSMVSDTSCTFPSGDGIFWKHWIQTKDGQCGSPLVSTRDGFIVGIHSASNFTNTNNYFTSVPKNFMELLTNQEAQQWVSGWRLNADSVLWGGHKVFMVKPEEPFQPVKEATQL
# Variants of: B1
# Experiment: raw area under fraction-flipped curve 0-4 h after induction (AUC4h, not background-subtracted), DNA-recorder readout of cleavage of the substrate (dimensionless); higher = more cleavage of the substrate by the protease variant
# Settings: temperature: 34 °C; time window: 0-4 h after rhamnose induction
# Description: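 In vivo DNA recorder in E. coli TOP10(DE3) ΔrhaA at 34 °C. Each TEVp single-site mutant (parent TEVp 0) is paired with a single-site variant of the 7-mer TEVs (canonical ENLYFQ|S). The substrate sits between flexible linkers in a Bxb1-sfGFP-TEVs-SsrA fusion, so cleavage stabilises Bxb1 and speeds flipping of a recombination array, read by NGS. The value is the raw area under the fraction-flipped curve over 0-4 h after rhamnose induction (AUC4h), with ≥20 reads per time point. It is not background-subtracted; inactive controls average about 0.047.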
# 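Further: Bxb1 expression induced with 0.2% (w/v) L-rhamnose at OD600 near 0.5, cultures sampled hourly, flipped fraction per protease–substrate barcode pair counted by paired-end Illumina sequencing.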
Variant,area with substrate ENLYEQS,area with substrate ENLYHQS,area with substrate ENLYIQS,area with substrate ENLYPQS,area with substrate ENLYVQS,area with substrate ENLYYQS,area with substrate ENLYKQS,area with substrate ENLYQQS,area with substrate ENLYRQS,area with substrate ENLYSQS
MGESLFKGPRDYNPISSSICHLTNESDGHTTSLYGIGFGPFIITNKHLFRRNNGTLVVQSLHGVFKVKDTTTLQQHLVDGRDMIIIRMPKDFPPFPQKLKFREPQREERICLVTTNFQTKSMSSMVSDTSCTFPSGDGIFWKHWIQTKDGQCGSPLVSTRDGFIVGIHSASNFTNTNNYFTSVPKNFMELLTNQEAQQWVSGWRLNADSVLWGGHKVYMVKPEEPFQPVKEATQL [F218Y],0.0711,0.0778,0.127,0.0434,0.125,0.0646,,,,
MGESLFKGPRDYNPISSSICHLTNESDGHTTSLYGIGFGPFIITNKHLFRRNNGTLVVQSLHGVFKVKDTTTLQQHLVDGRDMIIIRMPKDFPPFPQKLKFREPQREERICLVTTNFQTKSMSSMVSDTSCTFPSGDGIFWKHWIQTKDGQCGSPLVSTRDGFIVGIHSASNFTNTNNYRTSVPKNFMELLTNQEAQQWVSGWRLNADSVLWGGHKVFMVKPEEPFQPVKEATQL [F180R],0.063,,,0.106,,,0.022,0.0561,0.0536,0.045
MGESLFKGPRDYNPISSSICHLTNESDGHTTSLYGIGFGPFIITNKHLFRRNNGTLVVQSLHGVFKVKDTTTLQQHLVDGRDMIIIRMPKDFPPFPQKLKFREPQREERICLVTTNFQTKSMSSMVSDTSCTFPSGDGIFWKHWIQTKDGQCGSPLVSTRDGFIVGIHSASNFTNTNNYATSVPKNFMELLTNQEAQQWVSGWRLNADSVLWGGHKVFMVKPEEPFQPVKEATQL [F180A],0.112,,,,0.0883,,,,,
MGESLFKGPRDYNPISSSICHLTNESDGHTTSLYGIGFGPFIITNKHLFRRNNGTLVVQSLHGVFKVKDTTTLQQHLVDGRDMIIIRMPKDFPPFPQKLKFREPQREERICLVTTNFQTKSMSSMVSDTSCTFPSGDGIFWKHWIQTKDGQCGSPLVSARDGFIVGIHSASNFTNTNNYFTSVPKNFMELLTNQEAQQWVSGWRLNADSVLWGGHKVFMVKPEEPFQPVKEATQL [T159A],0.0593,,0.116,0.0556,0.121,,,,0.0592,
MGESLFKGPRDYNPISSSICHLTNESDGHTTSLYGIGFGPFIITNKHLFRRNNGTLVVQSLHGVFKVKDTTTLQQHLVDGRDMIIIRMPKDFPPFPQKLKFREPQREERICLVTTNFQTKSMSSMVSDTSCTFPSGDGIFWKHWIQTKHGQCGSPLVSTRDGFIVGIHSASNFTNTNNYFTSVPKNFMELLTNQEAQQWVSGWRLNADSVLWGGHKVFMVKPEEPFQPVKEATQL [D149H],0.0537,0.0575,0.0784,0.067,0.0735,,0.0542,,0.0575,0.0596
MGESLFKGPRDYNPISSSICHLTNESDGHTTSLYGIGFGPFIITNKHLFRRNNGTLVVQSLHGVFKVKDTTTLQQHLVDGRDMIIIRMPKDFPPFPQKLKFREPQREERICLVTTNFQTKSMSSMVSDTSCTFPSGDGIFWKHWIQTKDGQCGSPLVSTRDGFIVGIHSASNFTNTNNYFTLVPKNFMELLTNQEAQQWVSGWRLNADSVLWGGHKVFMVKPEEPFQPVKEATQL [S182L],0.0532,0.0505,,0.031,0.0646,0.0507,0.0527,,0.0479,
MGESLFKGPRDYNPISSSICHLTNESDGHTTSLYGIGFGPFIITNKHLFRRNNGTLVVQSLHGVFKVKDTTTLQQHLVDGRDMIIIRMPKDFPPFPQKLKFREPQREERICLVTTNFQTKSMSSMVSDTSCTFPSGDGIFWKHWIQTKDGQCGSPLVSTRDGFIVGIHSASNFVNTNNYFTSVPKNFMELLTNQEAQQWVSGWRLNADSVLWGGHKVFMVKPEEPFQPVKEATQL [T174V],0.0605,0.0477,0.0874,0.0197,0.0632,,0.0586,,0.0695,0.0932
MGESLFKGPRDYNPISSSICHLTNESDGHTTSLYGIGFGPFIITNKHLFRRNNGTLVVQSLHGVFKVKDTTTLQQHLVDGRDMIIIRMPKDFPPFPQKLKFREPQREERICLVTTNFQTKSMSSMVSDTSCTFPSGDGIFWKHWIQTKDGQCGSPLVSTRDGFIVGIHSATNFTNTNNYFTSVPKNFMELLTNQEAQQWVSGWRLNADSVLWGGHKVFMVKPEEPFQPVKEATQL [S171T],0.0544,0.102,,,,,,,,0.0564
MGESLFKGPRDYNPISSSICHLTNESDGHTTSLYGIGFGPFIITNKHLFRRNNGTLVVQSLHGVFKVKDTTTLQQHLVDGRDMIIIRMPKDFPPFPQKLKFREPQREERICLVTTNFQTKSMSSMVSDTSCTFPSGDGIFWKHWIQTKDGQCGSPLVSTRDGFIVGIHSASNFTNTNNYFTSVPKNTMELLTNQEAQQWVSGWRLNADSVLWGGHKVFMVKPEEPFQPVKEATQL [F187T],0.0591,0.0701,,,,,0.0722,,0.0566,
MGESLFKGPRDYNPISSSICHLTNESDGHTTSLYGIGFGPFIITNKHLFRRNNGTLVVQSLHGVFKVKDTTTLQQHLVDGRDMIIIRMPKDFPPFPQKLKFREPQREERICLVTTNFQTKSMSSMVSDTSCTFPSGDGIFWKIWIQTKDGQCGSPLVSTRDGFIVGIHSASNFTNTNNYFTSVPKNFMELLTNQEAQQWVSGWRLNADSVLWGGHKVFMVKPEEPFQPVKEATQL [H143I],0.0454,0.0649,,,,0.0646,0.0553,,0.0622,

# Same assay, conditions: temperature: 34 °C; time window: 0-4 h after rhamnose induction
Variant,area with substrate ENLYWQS,area with substrate ENLYLQS,area with substrate ENLYMQS,area with substrate ENLYNQS,area with substrate ENLYGQS
MGESLFKGPRDYNPISSSICHLTNESDGHTTSLYGIGFGPFIITNKHLFRRNNGTLVVQSLHGVFKVKDTTTLQQHLVDGRDMIIIRMPKDFPPFPQKLKFREPQREERICLVTTNFQTKSMSSMVSDTSCTFPSGDGIFWKHWIQTKDGQCGSPLVSTRDGFIVGIHSASNFTNTNNYRTSVPKNFMELLTNQEAQQWVSGWRLNADSVLWGGHKVFMVKPEEPFQPVKEATQL [F180R],0.0524,,,,
MGESLFKGPRDYNPISSSICHLTNESDGHTTSLYGIGFGPFIITNKHLFRRNNGTLVVQSLHGVFKVKDTTTLQQHLVDGRDMIIIRMPKDFPPFPQKLKFREPQREERICLVTTNFQTKSMSSMVSDTSCTFPSGDGIFWKHWIQTKDGQCGSPLVSTRDGFIVGIHSASNFTNTNNYATSVPKNFMELLTNQEAQQWVSGWRLNADSVLWGGHKVFMVKPEEPFQPVKEATQL [F180A],0.0674,0.0681,0.069,0.0529,
MGESLFKGPRDYNPISSSICHLTNESDGHTTSLYGIGFGPFIITNKHLFRRNNGTLVVQSLHGVFKVKDTTTLQQHLVDGRDMIIIRMPKDFPPFPQKLKFREPQREERICLVTTNFQTKSMSSMVSDTSCTFPSGDGIFWKHWIQTKDGQCGSPLVSARDGFIVGIHSASNFTNTNNYFTSVPKNFMELLTNQEAQQWVSGWRLNADSVLWGGHKVFMVKPEEPFQPVKEATQL [T159A],,0.0437,,,
MGESLFKGPRDYNPISSSICHLTNESDGHTTSLYGIGFGPFIITNKHLFRRNNGTLVVQSLHGVFKVKDTTTLQQHLVDGRDMIIIRMPKDFPPFPQKLKFREPQREERICLVTTNFQTKSMSSMVSDTSCTFPSGDGIFWKHWIQTKHGQCGSPLVSTRDGFIVGIHSASNFTNTNNYFTSVPKNFMELLTNQEAQQWVSGWRLNADSVLWGGHKVFMVKPEEPFQPVKEATQL [D149H],0.0494,,0.0509,,0.0443
MGESLFKGPRDYNPISSSICHLTNESDGHTTSLYGIGFGPFIITNKHLFRRNNGTLVVQSLHGVFKVKDTTTLQQHLVDGRDMIIIRMPKDFPPFPQKLKFREPQREERICLVTTNFQTKSMSSMVSDTSCTFPSGDGIFWKHWIQTKDGQCGSPLVSTRDGFIVGIHSASNFTNTNNYFTLVPKNFMELLTNQEAQQWVSGWRLNADSVLWGGHKVFMVKPEEPFQPVKEATQL [S182L],0.0496,,0.0461,0.0493,
MGESLFKGPRDYNPISSSICHLTNESDGHTTSLYGIGFGPFIITNKHLFRRNNGTLVVQSLHGVFKVKDTTTLQQHLVDGRDMIIIRMPKDFPPFPQKLKFREPQREERICLVTTNFQTKSMSSMVSDTSCTFPSGDGIFWKHWIQTKDGQCGSPLVSTRDGFIVGIHSASNFVNTNNYFTSVPKNFMELLTNQEAQQWVSGWRLNADSVLWGGHKVFMVKPEEPFQPVKEATQL [T174V],0.0911,,0.0694,0.0636,
MGESLFKGPRDYNPISSSICHLTNESDGHTTSLYGIGFGPFIITNKHLFRRNNGTLVVQSLHGVFKVKDTTTLQQHLVDGRDMIIIRMPKDFPPFPQKLKFREPQREERICLVTTNFQTKSMSSMVSDTSCTFPSGDGIFWKHWIQTKDGQCGSPLVSTRDGFIVGIHSATNFTNTNNYFTSVPKNFMELLTNQEAQQWVSGWRLNADSVLWGGHKVFMVKPEEPFQPVKEATQL [S171T],0.101,,0.0941,,
MGESLFKGPRDYNPISSSICHLTNESDGHTTSLYGIGFGPFIITNKHLFRRNNGTLVVQSLHGVFKVKDTTTLQQHLVDGRDMIIIRMPKDFPPFPQKLKFREPQREERICLVTTNFQTKSMSSMVSDTSCTFPSGDGIFWKHWIQTKDGQCGSPLVSTRDGFIVGIHSASNFTNTNNYFTSVPKNTMELLTNQEAQQWVSGWRLNADSVLWGGHKVFMVKPEEPFQPVKEATQL [F187T],0.0657,0.0714,0.0774,0.0622,0.0625
MGESLFKGPRDYNPISSSICHLTNESDGHTTSLYGIGFGPFIITNKHLFRRNNGTLVVQSLHGVFKVKDTTTLQQHLVDGRDMIIIRMPKDFPPFPQKLKFREPQREERICLVTTNFQTKSMSSMVSDTSCTFPSGDGIFWKIWIQTKDGQCGSPLVSTRDGFIVGIHSASNFTNTNNYFTSVPKNFMELLTNQEAQQWVSGWRLNADSVLWGGHKVFMVKPEEPFQPVKEATQL [H143I],,,,,0.0277
